Results from US20260124226A1 (priority 2023, published 2026).

What was measured:
[1] = system: HepG2; assay: EIDD-2749 cytotoxicity; type: cell-based; details: HepG2 cells
[2] = system: RAW264.7 cells; assay: Cytotoxicity (CC50) run with the norovirus assay
[3] = pH 5.2
Method: Vials were pre-incubated in LC autosampler set at 37° C. for at least 15 minutes prior to spiking the SGF with the drug. Vials were placed back in the 37° C.-autosampler and injections were made at times: 0, 0.5, 1, 1.5, 2, 2.5, 3, 3.5, and 4 hours and analyzed by LC-MS/MS. No internal standard was used.
(§1) For EIDD-3232, the mobile phase was isocratic using 18% A: 100 mM ammonium formate in water+0.1% (v/v) formic acid and 82% B: acetonitrile+0.1% (v/v) formic acid at a flow rate of 1000 L/min with a run time of about 3 minutes.

[4] = pH 1.3
Method: Briefly, EIDD-3232 was incubated in triplicate at 50.0 μM (1.25 μL of a 40 mM DMSO solution in 999 L) in simulated gastric fluid (SGF: 0.200 (w/v) NaCl in 0.700 (v/v) concentrated HCl, Ricca, Lot 2202943) in 2-mL HPLC vials. Vials were pre-incubated in LC autosampler set at 37° C. for at least 15 minutes prior to spiking the SGF with the drug. Vials were placed back in the 37° C.-autosampler and injections were made at times: 0, 0.5, 1, 1.5, 2, 2.5, 3, 3.5, and 4 hours and analyzed by LC-MS/MS. No internal standard was used.
as §1

[5] = mouse, in vivo, po, 10 mg/kg

| SMILES | CC50 [1] [µM] | CC50 [2] [µM] | EIDD-2749 production in SIF [3] | metabolites/degradants detected (lower limit of quantitation) [3] [µM] | uracil average concentration [3] [µM] | EIDD-2749 production in SGF [4] | uracil (degradant) as % of the time-zero concentration [4] [%] | Cmax of the analyte [5] | EIDD-3232 in plasma [5] | EIDD-3321 in plasma [5] |
| --- | --- | --- | --- | --- | --- | --- | --- | --- | --- | --- |
| O=c1ccn([C@@H]2O[C@](F)(CO)[C@@H](O)[C@H]2O)c(=O)[nH]1 [EIDD-2749, 4′-fluorouridine] | > 400 | > 100 |  |  |  |  |  |  |  |  |
| CC(C)OC(=O)[C@H](C)N[P@](=O)(OC[C@@]1(F)O[C@@H](n2ccc(=O)[nH]c2=O)[C@H](O)[C@@H]1O)Oc1ccccc1 [EIDD-3232, isopropyl ((S)-(((2S,3S,4R,5R)-5-(2,4-dioxo-3,4-dihydropyrimidin-1(2H)-yl)-2-fluoro-3,4-dihydroxytetrahydrofuran-2-yl)methoxy)(phenoxy)phosphoryl)-L-alaninate] |  |  | negligible | ≤ 0.125 | 0.152 | negligible | < 8 | BQL | not observed | BQL |
